These results are taken from PubChem BioAssay (NCI).

For this assay, the system named is MDA-MB-468 breast. In words: NCI-60 cell line screen, 48 h.

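Each compound was tested at five concentrations against cells in 96-well plates for 48 hours. TGI: total growth inhibition.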 Certain results were filed several times, with different values. This is not the full list of results. There may be further records. The tests behind the records often covered other concentration ranges, not given here; some values may only mark the edge of a range.

`CC[C@H](C)[C@H](NC(=O)[C@H]1CCCCN1C)C(=O)N(C)[C@H](C[C@@H](OC(C)=O)c1cccc(C(=O)N[C@@H](Cc2ccccc2)C[C@H](C)C(=O)O)n1)C(C)C`: the TGI was 279 nM and > 25 µM.
